Experimental data taken from PubChem BioAssay AID995 (National Center for Advancing Translational Sciences (NCATS), 2007).
In all, about 72,000 compounds went through this assay and about 710 (0.99%) were called active. Inconclusive means that the source gave no clear call. Such entries were picked first, then a sample of the others. The call rests on the fitted dose curve; in most records, active means well fitted inhibition curve with a large enough effect; inconclusive means small, poorly fitted or top-dose-only effect; inactive means no such curve, though single readings can be large or run the other way. A potency beside an inconclusive call is a rough fit, not a confirmed value.

Assay: qHTS Assay for Inhibitors of the ERK Signaling Pathway using a Homogeneous Screening Assay; further: nearly all actives have a fitted effect of over 55% in size
Conditions: HEK293-V1b, vasopressin-stimulated pERK AlphaScreen; activity, negative = inhibition: at 57.5 µM (top of the series) unless noted
Outline: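 Phosphorylated ERK1/2 detected via AlphaScreen bead proximity in lysates of V1b-expressing HEK293 cells given 25 nM vasopressin for 5 min after 30 min compound exposure (37 °C). AC50 from Hill equation; basal DMSO 0%, vasopressin 100%.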
On the % scale 0 is the no-effect control and ±100 the full control effect; potency means the concentration at half of the fitted maximal effect; tags describe the fitted curve by direction and shape.

Potency, inactive:
CCCc1noc(-c2ccc(-c3ccccc3)cc2)n1
COc1ccccc1N(C(=O)c1ccco1)C(C(=O)NC1CCCC1)c1cccnc1 (centres undefined)
CN(C)C=Nc1ncc2c3ccccc3n(Cc3ccccc3)c2c1C#N
C=C(C)COc1ccc2c(C)c(C)c(=O)oc2c1OCC(=C)C
COC(=O)C1=CNC=C(C(=O)OC)C1c1ccccc1Cl
COc1cc(C(=O)N(CCc2ccccc2)C2CC3CCC(C2)N3C)cc(OC)c1OC (centres undefined)
O=C(NCc1ccco1)c1cc2cc3ccc(Cl)cc3nc2o1
O=C(c1csnn1)N1CCC2(CC1)CN(c1cccc(-c3ccccc3)c1)C2
Cc1cc(C(=O)CSc2nnc(-c3cccs3)o2)c(C)n1-c1ccccc1
Nc1ccc(-c2nc3c(Cl)cc(N)cc3[nH]2)cc1
N#CCCn1c(=O)c(-c2ccc(Cl)cc2)nc2cnc(N3CCOCC3)nc21

Potency, inconclusive:
CCOC(=O)C1=C(C)NC2=C(C(=O)c3ccccc32)C1c1cccnc1 (centres undefined) 2.51 µM [inhibitor, partial curve]
CC1=C(C(=O)OCC2CCCO2)C(c2ccc(C)o2)C2=C(CC(c3ccc(N(C)C)cc3)CC2=O)N1 (centres undefined) 31.6 µM [inhibitor, partial curve]
Cc1cc(N)n(-c2ccccc2)n1 12.6 µM [inhibitor, partial curve]
CCCc1cc(=O)[nH]c(SCC(=O)c2ccc(S(=O)(=O)N3CCCC3)cc2)n1 31.6 µM [inhibitor, partial curve]
CN(C)C(=O)c1ccc(-c2nc(N(C)Cc3ccco3)c3ccccc3n2)cc1 39.8 µM [inhibitor, single point]
Cc1cccc(CNc2cc(-c3ccccc3CN(C)C)ncn2)c1 7.94 µM [inhibitor, full curve, poor fit]
NC(=O)c1ccc(Br)c(S(=O)(=O)N2CCCCC2)c1 25.1 µM [inhibitor, single point]
c1ccc(CNc2nc(-c3cccnc3)nc3ccccc23)cc1 0.794 µM [inhibitor, full curve]
Cc1ccccc1OCC(=O)Nc1ccc(N2CCN(C(=O)C(C)C)CC2)c(Cl)c1 39.8 µM [inhibitor, single point]
COc1ccc(CCNC(=O)Cn2nnc(-c3cccc(OC)c3OC)n2)cc1OC 39.8 µM [inhibitor, single point]
Clc1ccc(OCc2nnc(SCCN3CCCCC3)n2Cc2ccco2)cc1 20 µM [inhibitor, partial curve]
CCOC(=O)c1ccc(CSc2nnc(-c3ccncc3)n2N)cc1 31.6 µM [inhibitor, single point]
CCCCCCC(=O)c1c(C)[nH]c(C(=O)OCC)c1C 20 µM [inhibitor, partial curve, poor fit]
Cc1noc(C)c1-c1ccc2ncnc(N(C)Cc3ccco3)c2c1 39.8 µM [inhibitor, single point]
CC1CN(S(=O)(=O)c2ccc(NC(=O)c3cc(-c4ccccc4O)n[nH]3)cc2)CC(C)O1 (centres undefined) 39.8 µM [inhibitor, single point]
Cc1ccc2cc(CN(CCCO)S(=O)(=O)c3cccc4nsnc34)c(=O)[nH]c2c1C 25.1 µM [inhibitor, single point]
NS(=O)(=O)c1ccc(NC(=O)COC(=O)CCNC(=O)NC23CC4CC(CC(C4)C2)C3)cc1 25.1 µM [inhibitor, single point]
COc1ccc(-c2oc(/N=C/N3CCOCC3)c(C#N)c2-c2ccc(OC)cc2)cc1 39.8 µM [inhibitor, single point]
CCc1nc(N)c(C#N)c(-c2ccncc2)c1C 39.8 µM [inhibitor, partial curve]
CC(=O)N1CCC(C(=O)Nc2nc(-c3ccccc3)ns2)CC1 31.6 µM [inhibitor, single point]
CCOP(=O)(c1c(F)c(F)c(F)c(F)c1F)C(O)c1ccccc1 (centres undefined) 39.8 µM [inhibitor, single point]
COc1cc(C(=O)Oc2c(CN3CCOCC3)cc(Cl)c3cccnc23)cc(OC)c1OC 25.1 µM [inhibitor, partial curve]
COc1ccc(C(C)=O)cc1COC(=O)c1cc(C)oc1C 12.6 µM [inhibitor, partial curve]
N#Cc1c(N)nc(SC2CCCCC2=O)c(C#N)c1-c1ccco1 (centres undefined) 10 µM [inhibitor, partial curve]
O=c1[nH]c2cc3c(cc2cc1C(c1nnnn1C1CCCCC1)N1CCSCC1)OCCO3 (centres undefined) 39.8 µM [inhibitor, single point]
N#Cc1c2c(c(N3CCN(c4ccccn4)CC3)n3c1nc1ccccc13)CCC2 39.8 µM [inhibitor, single point]
Brc1ccc(Nc2c3c(nc4ncnn24)CCC3)cc1 31.6 µM [inhibitor, single point]
C[N+](C)(C)CCC(=O)c1cccc2ccccc12 39.8 µM [inhibitor, single point]
CCOC(=O)c1cccc(NC(=O)C2CCCN(S(=O)(=O)c3c(C)nn(C)c3C)C2)c1 (centres undefined) 39.8 µM [inhibitor, single point]

Potency, active:
Cn1cc(C2=C(c3cn(CCCSC(=N)N)c4ccccc34)C(=O)NC2=O)c2ccccc21 2 µM
O=C(Nc1ccc(S(=O)(=O)N2CCCC2)cc1)c1ccc(CN2CCOCC2)cc1 10 µM
Cc1csc(NC(=O)CSCC(=O)Nc2ccccc2)n1 31.6 µM

activity, negative = inhibition, inconclusive:
C[C@@]12CC[C@H]3[C@@H](CCC4=CC(=O)CC[C@]43C)[C@H]1CC[C@H]2C(=O)CO -31.4% [inhibitor] [at 25.7 µM]
